About 14,000 (4.5%) of roughly 310,000 compounds showed an effect of 50% or more. The effect is printed as a negative number. The list shows a part of the results.
Target: human ether-à-go-go-related gene (hERG) potassium channel (human, UniProt Q12809)
Test: primary screen, population patch clamp on CHO cells stably expressing hERG
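Further: peak tail current of the secondary pulse compared with the same well before compound.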

Chain of human ether-à-go-go-related gene (hERG) potassium channel (Q12809 whole entry, looked up): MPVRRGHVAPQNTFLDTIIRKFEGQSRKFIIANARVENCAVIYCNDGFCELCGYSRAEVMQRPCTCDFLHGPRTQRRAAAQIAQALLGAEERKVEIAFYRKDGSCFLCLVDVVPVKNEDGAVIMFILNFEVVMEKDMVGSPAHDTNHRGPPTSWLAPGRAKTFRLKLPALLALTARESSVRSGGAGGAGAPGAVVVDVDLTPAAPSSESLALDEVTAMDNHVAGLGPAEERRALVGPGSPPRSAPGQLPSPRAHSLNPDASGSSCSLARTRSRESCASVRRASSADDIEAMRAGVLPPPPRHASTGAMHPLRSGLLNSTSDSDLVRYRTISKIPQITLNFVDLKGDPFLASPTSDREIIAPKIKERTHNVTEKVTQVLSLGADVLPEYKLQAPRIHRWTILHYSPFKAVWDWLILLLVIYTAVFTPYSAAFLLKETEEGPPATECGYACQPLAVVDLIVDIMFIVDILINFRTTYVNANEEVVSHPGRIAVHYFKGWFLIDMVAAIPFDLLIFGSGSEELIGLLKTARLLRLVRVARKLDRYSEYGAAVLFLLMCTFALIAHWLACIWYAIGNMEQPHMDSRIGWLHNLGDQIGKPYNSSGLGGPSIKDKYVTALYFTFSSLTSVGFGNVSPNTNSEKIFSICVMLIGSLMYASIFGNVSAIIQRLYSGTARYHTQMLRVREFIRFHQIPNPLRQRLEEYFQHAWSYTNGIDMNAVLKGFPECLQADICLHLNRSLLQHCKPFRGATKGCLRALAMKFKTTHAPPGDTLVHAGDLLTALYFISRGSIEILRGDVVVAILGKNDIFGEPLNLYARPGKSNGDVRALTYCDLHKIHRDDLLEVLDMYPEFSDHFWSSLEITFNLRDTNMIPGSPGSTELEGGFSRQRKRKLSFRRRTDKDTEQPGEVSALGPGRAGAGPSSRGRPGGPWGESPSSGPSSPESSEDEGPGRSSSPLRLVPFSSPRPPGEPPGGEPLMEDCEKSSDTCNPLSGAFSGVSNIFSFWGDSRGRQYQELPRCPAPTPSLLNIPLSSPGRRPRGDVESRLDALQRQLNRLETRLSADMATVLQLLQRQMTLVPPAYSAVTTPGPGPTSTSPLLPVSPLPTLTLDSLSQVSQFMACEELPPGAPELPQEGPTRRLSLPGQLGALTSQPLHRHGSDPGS

Point of comparison: `O=C(CCc1nnc2n(Cc3ccc(F)cc3)c(=O)c3ccccc3n12)NCCN1CCOCC1`, “hERG current change (%, negative = inhibition) at 10uM” value -20.3%. Against it:
- CC(=NCCCN1CCOCC1)c1c(O)n(-c2ccccc2C)c(=O)[nH]c1=O — higher, 17.9%
- CS(=O)(=O)N(CC(=O)N/N=C/c1ccc(OCC(=O)N2CCOCC2)cc1)c1ccccc1Cl — higher, 7.12%
- CC(C)OC(=O)c1cccc(C(=O)Oc2ccc(Br)cc2)n1 — higher, -2.27%
- CC(C)SCc1cc(N2CCCC2)nc(-c2ccccc2)n1 — higher, 11%
- CCc1ccc2oc(C(=O)N3CCN(C)CC3)cc(=O)c2c1 — lower, -32.4%
- CC(C)NC(=O)Cn1cc(C#N)c2cc(Br)ccc21 — higher, 2.76%
- CC1=C/C(=C\C=C(C#N)C#N)N(C)c2ccccc21 — higher, 9.34%
- CCSc1nccc(-c2nn(-c3ccc(C)cc3)ccc2=O)n1 — lower, -33.6%
- CCCCN(CC)C(=O)CSc1cc(=O)n(C)c2ccccc12 — higher, -10.4%
- CCN(CC)C(=S)SCC(=O)Nc1cccc(C(F)(F)F)c1 — higher, -10%
- Cc1ccc(CS/C(Nc2ccccc2C)=C(\C#N)C(=O)NCc2ccco2)c(C)c1 — higher, 9.03%
- CCn1c2ccccc2c2cc(NC(=O)COC(=O)C3CCC(=O)N3)ccc21 (centres unmarked) — higher, 3.79%
- COc1ccc(CCNc2nc3ccccc3n3cnnc23)cc1OC — higher, 10%
- CCOC(=O)N1CCN(C(=O)C2CCN(S(=O)(=O)c3ccccc3)CC2)CC1 — higher, -17.4%
- C/C(=N\NC(=O)c1cccc([N+](=O)[O-])c1)c1cccnc1 — higher, 0.782%
- CCCCCCSc1ccc([C@H]2N[C@@](Cc3ccccc3)(C(=O)OC)[C@H]3C(=O)N(CC)C(=O)[C@@H]23)cc1.O=C(O)C(F)(F)F — higher, -0.79%
- Cc1ccccc1OCC(=O)N1CCN(C(=O)COc2ccccc2C)CC1 — higher, 4.74%
- Nc1nc(NC(=O)CCC(=O)O)nn1-c1ccccc1 — higher, 9.86%
- CCn1nnc2cc(C(=O)Nc3cccc(S(=O)(=O)N(C)C)c3)ccc21 — the same, -20.3%
- CCOC(=O)Nc1ccc(S(=O)(=O)NC2CCCCC2)cc1 — higher, 9.96%
- COc1cccc(CN(C)C(=O)Cc2ccc(OC)c(S(=O)(=O)N3CCOCC3)c2)c1 — higher, -4.35%
- O=C(CN1CCN(c2ccccc2)CC1)Nc1nccs1 — higher, 5.11%
- CC(=O)NNC(=O)CC(=O)Nc1nc(C23CC4CC(CC(C4)C2)C3)cs1 — higher, 31.4%
- CC(=O)Nc1cccc(Oc2ncnc3scc(-c4ccccc4)c23)c1 — higher, -4.72%
- Cc1ccc2c(c1)c1ncn(CCC3=CCCCC3)c(=O)c1n2C — higher, 9.5%
- CC(=O)N(C)c1ccc(NC(=O)Nc2ccccc2C)cc1 — higher, 20.1%
- O=C(Nc1nnc(SCc2ccccc2)s1)c1cc2c(s1)CCCC2 — higher, 2.66%
- Cc1ccc(F)c(CNC(=O)C2CCC(=O)N(CCN3CCOCC3)C2)c1F (centres unmarked) — higher, 12%
- O=C(NCCc1csc(-c2ccccc2)n1)c1cccs1 — higher, -18.4%
- C=CCn1c(COc2ccc(Cl)cc2)nnc1SCC(=O)c1c(N)n(C)c(=O)n(C)c1=O — higher, 12.5%
- Cc1cc(C)n2nc(SCC(=O)N(C(C)C)C(C)C)nc2n1 — higher, 12.7%
- CCn1nc(C(C)C(=O)O)c2ccccc2c1=O (centres unmarked) — higher, 29.7%
- COc1ccc(C(=O)/C=C/C(=O)N(Cc2ccc(F)cc2)C(C(=O)NC2CCCCC2)c2ccncc2)c(O)c1 (centres unmarked) — higher, -5.4%
- Cn1cc(C=O)c2ccccc21 — higher, 19%
- O=C(COc1cccc2c1CCN(Cc1ccc(Br)cc1)C2=O)N1CCOCC1 — lower, -58.4%
- O=c1cc(/C=C/c2c(F)cccc2Cl)[nH]c2ccccc12 — higher, 6.32%
- Cc1cc(O)c(C(C)C)cc1N=Cc1cc([N+](=O)[O-])ccc1O — higher, 0.22%
- N#Cc1c(-c2ccccc2)cc(C2CC2)nc1N — higher, 4.2%
- COc1ccc(-c2oc3ncn4nc(Cc5ccccc5)nc4c3c2-c2ccc(OC)cc2)cc1 — higher, 0.425%
- N#CC1=C(N)C(C#N)(C#N)C(c2ccc[nH]2)C2CCCC=C12 (centres unmarked) — higher, -2.16%
- CCN(CC(=O)Nc1ccccc1OC)C(=O)CCOc1ccc(C(C)(C)C)cc1 — lower, -27.4%
- CC(=O)Nc1nc2ccc(S(=O)(=O)N3CCCCC3)cc2s1 — higher, 11.4%
- CC1(C)CC2(CC(C)(C)NC(=O)N2)NC(=O)N1 — higher, 9.38%
- CC1CCN(c2ccc(C(=O)O)cc2NS(=O)(=O)c2ccc(Br)cc2)CC1 — higher, -4.27%
- CSCCC(NC(=O)c1ccc(Cl)cc1)C(=O)OCC(C)=O (centres unmarked) — higher, 51.9%
- Cc1cc(NC(=O)CCSc2nc(-c3ccco3)cc(C(F)(F)F)n2)n(-c2ccccc2)n1 — higher, -12.3%
- COc1ccccc1-n1cc(-c2ccc(C)cc2)[nH]c1=S — higher, 14.2%
- c1cc(Nc2ncnc3sccc23)cc(-c2nnc3n2CCCCC3)c1 — higher, -19.7%
- CN(CCc1ccccc1)Cc1ccccc1[N+](=O)[O-] — lower, -24.1%
- COc1ccc(OCC(O)Cn2cnc(-c3ccc(Br)cc3)c2)cc1 (centres unmarked) — higher, 11%
- O=C(Nc1ccc(S(=O)(=O)N2CCOCC2)cc1)C1CCN(S(=O)(=O)c2ccccc2)CC1 — lower, -20.8%
- O=C(COc1ccc(S(=O)(=O)N2CCOCC2)cc1)NC1CC1 — higher, 16.9%
- O=S(=O)(NCc1csc(-c2cccs2)n1)c1ccccc1 — higher, 4.27%
- O=C(NNc1c(Cl)cc(Cl)cc1Cl)c1cccc([N+](=O)[O-])c1 — higher, 13.2%
- O=C(CCNC(=O)c1ccccc1Cl)Nc1nc2ccc(F)cc2s1 — higher, -10.4%

Source: PMC4336329 (PLoS ONE, 2015)
